# From the supplement of paper PMC8728848
# This is one part of the list.
# Assays:
# Assay in all cases: glycan array binding signal (z-score within array); higher = stronger binding
# Settings in all cases: glycan notation: IUPAC condensed, linker removed
# [1] = biological target: Neu5Ac(a2-3)Gal(b1-4)GlcNAc(b1-3)[Neu5Ac(a2-3)Gal(b1-4)GlcNAc(b1-6)]GalNAc
# In short: (§1)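 Columns mapping to the same glycan were averaged after glycan names were converted to IUPAC-condensed notation. The data come from 3228 arrays in the Consortium for Functional Glycomics database, limited to those with an available protein sequence. Binding is reported as a within-array Z-score averaged across arrays of one protein sequence and across linkers.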
# [2] = biological target: Neu5Ac(a2-3)Gal(b1-4)GlcNAc(b1-6)GalNAc
# In short: as §1
# [3] = biological target: Neu5Ac(a2-3)Gal(b1-4)GlcNAc(b1-6)[Gal(b1-3)]GalNAc
# In short: as §1
# [4] = biological target: Neu5Ac(a2-3)Gal(b1-4)GlcNAc(b1-6)[Neu5Ac(a2-3)Gal(b1-3)]GalNAc
# In short: as §1
# [5] = biological target: Neu5Ac(a2-3)Gal(b1-4)GlcNAc6S
# In short: as §1
# [6] = biological target: Neu5Ac(a2-3)Gal(b1-4)[Fuc(a1-3)]GlcNAc
# In short: as §1
# [7] = biological target: Neu5Ac(a2-3)Gal(b1-4)[Fuc(a1-3)]GlcNAc(b1-2)Man
# In short: as §1
# [8] = biological target: Neu5Ac(a2-3)Gal(b1-4)[Fuc(a1-3)]GlcNAc(b1-3)Gal
# In short: as §1
# [9] = biological target: Neu5Ac(a2-3)Gal(b1-4)[Fuc(a1-3)]GlcNAc(b1-3)Gal(b1-4)GlcNAc
# In short: as §1
# [10] = biological target: Neu5Ac(a2-3)Gal(b1-4)[Fuc(a1-3)]GlcNAc(b1-3)Gal(b1-4)[Fuc(a1-3)]GlcNAc(b1-3)Gal(b1-4)[Fuc(a1-3)]GlcNAc
# In short: as §1
# [11] = biological target: Neu5Ac(a2-3)Gal(b1-4)[Fuc(a1-3)]GlcNAc(b1-3)GalNAc
# In short: as §1
# [12] = biological target: Neu5Ac(a2-3)Gal(b1-4)[Fuc(a1-3)]GlcNAc(b1-6)[Gal(b1-3)]GalNAc
# In short: as §1
# [13] = biological target: Neu5Ac(a2-3)Gal(b1-4)[Fuc(a1-3)]GlcNAc(b1-6)[Neu5Ac(a2-3)Gal(b1-3)]GalNAc
# In short: as §1
# [14] = biological target: Neu5Ac(a2-3)Gal(b1-4)[Fuc(a1-3)]GlcNAc6S
# In short: as §1
# [15] = biological target: Neu5Ac(a2-3)Gal6S(b1-4)GlcNAc
# In short: as §1
# [16] = biological target: Neu5Ac(a2-3)Gal6S(b1-4)[Fuc(a1-3)]GlcNAc
# In short: as §1
# Neu5Ac(a2-3)GalNAc = biological target: Neu5Ac(a2-3)GalNAc
# In short: as §1
# [17] = biological target: Neu5Ac(a2-3)GalNAc(b1-4)GlcNAc
# In short: as §1
# [18] = biological target: Neu5Ac(a2-3)[GalNAc(b1-4)]Gal(b1-4)Glc
# In short: as §1
# [19] = biological target: Neu5Ac(a2-3)[GalNAc(b1-4)]Gal(b1-4)GlcNAc
# In short: as §1
# [20] = biological target: Neu5Ac(a2-3)[GalNAc(b1-4)]Gal(b1-4)GlcNAc(b1-3)GalNAc
# In short: as §1
# [21] = biological target: Neu5Ac(a2-3)[Neu5Ac(a2-6)]GalNAc
# In short: as §1
# Neu5Ac(a2-6)Gal = biological target: Neu5Ac(a2-6)Gal
# In short: as §1
# [22] = biological target: Neu5Ac(a2-6)Gal(b1-3)GlcNAc(b1-3)[Gal(b1-4)GlcNAc(b1-6)]Gal(b1-4)Glc
# In short: as §1
# Neu5Ac(a2-6)Gal(b1-4)Glc = biological target: Neu5Ac(a2-6)Gal(b1-4)Glc
# In short: as §1
# [23] = biological target: Neu5Ac(a2-6)Gal(b1-4)GlcNAc
# In short: as §1
# [24] = biological target: Neu5Ac(a2-6)Gal(b1-4)GlcNAc(b1-2)Man
# In short: as §1
# [25] = biological target: Neu5Ac(a2-6)Gal(b1-4)GlcNAc(b1-2)Man(a1-3)Man(b1-4)GlcNAc(b1-4)GlcNAc
# In short: as §1
# [26] = biological target: Neu5Ac(a2-6)Gal(b1-4)GlcNAc(b1-2)Man(a1-3)[Gal(b1-4)GlcNAc(b1-2)Man(a1-6)]Man(b1-4)GlcNAc(b1-4)GlcNAc
# In short: as §1
# [27] = biological target: Neu5Ac(a2-6)Gal(b1-4)GlcNAc(b1-2)Man(a1-3)[GlcNAc(b1-2)Man(a1-6)]Man(b1-4)GlcNAc(b1-4)GlcNAc
# In short: as §1
# [28] = biological target: Neu5Ac(a2-6)Gal(b1-4)GlcNAc(b1-2)Man(a1-3)[GlcNAc(b1-4)][Neu5Ac(a2-6)Gal(b1-4)GlcNAc(b1-2)Man(a1-6)]Man(b1-4)GlcNAc(b1-4)GlcNAc
# In short: as §1
# [29] = biological target: Neu5Ac(a2-6)Gal(b1-4)GlcNAc(b1-2)Man(a1-3)[Man(a1-6)]Man(b1-4)GlcNAc(b1-4)GlcNAc
# In short: as §1
# [30] = biological target: Neu5Ac(a2-6)Gal(b1-4)GlcNAc(b1-2)Man(a1-3)[Neu5Ac(a2-3)Gal(b1-4)GlcNAc(b1-2)Man(a1-6)]Man(b1-4)GlcNAc(b1-4)GlcNAc
# In short: as §1
# [31] = biological target: Neu5Ac(a2-6)Gal(b1-4)GlcNAc(b1-2)Man(a1-3)[Neu5Ac(a2-6)Gal(b1-4)GlcNAc(b1-2)Man(a1-6)]Man(b1-4)GlcNAc(b1-4)GlcNAc
# In short: as §1
# [32] = biological target: Neu5Ac(a2-6)Gal(b1-4)GlcNAc(b1-2)Man(a1-3)[Neu5Ac(a2-6)Gal(b1-4)GlcNAc(b1-2)Man(a1-6)]Man(b1-4)GlcNAc(b1-4)[Fuc(a1-6)]GlcNAc
# In short: as §1
# [33] = biological target: Neu5Ac(a2-6)Gal(b1-4)GlcNAc(b1-2)Man(a1-6)Man(b1-4)GlcNAc(b1-4)GlcNAc
# In short: as §1
# [34] = biological target: Neu5Ac(a2-6)Gal(b1-4)GlcNAc(b1-2)Man(a1-6)[Gal(b1-4)GlcNAc(b1-2)Man(a1-3)]Man(b1-4)GlcNAc(b1-4)GlcNAc
# In short: as §1
# [35] = biological target: Neu5Ac(a2-6)Gal(b1-4)GlcNAc(b1-2)Man(a1-6)[GlcNAc(b1-2)Man(a1-3)]Man(b1-4)GlcNAc(b1-4)GlcNAc
# In short: as §1
# [36] = biological target: Neu5Ac(a2-6)Gal(b1-4)GlcNAc(b1-2)Man(a1-6)[Man(a1-3)]Man(b1-4)GlcNAc(b1-4)GlcNAc
# In short: as §1
# [37] = biological target: Neu5Ac(a2-6)Gal(b1-4)GlcNAc(b1-2)[Neu5Ac(a2-6)Gal(b1-4)GlcNAc(b1-4)]Man(a1-3)[GlcNAc(b1-4)][Neu5Ac(a2-6)Gal(b1-4)GlcNAc(b1-2)[Neu5Ac(a2-6)Gal(b1-4)GlcNAc(b1-6)]Man(a1-6)]Man(b1-4)GlcNAc(b1-4)GlcNAc
# In short: as §1
# [38] = biological target: Neu5Ac(a2-6)Gal(b1-4)GlcNAc(b1-2)[Neu5Ac(a2-6)Gal(b1-4)GlcNAc(b1-4)]Man(a1-3)[GlcNAc(b1-4)][Neu5Ac(a2-6)Gal(b1-4)GlcNAc(b1-4)Man(a1-6)]Man(b1-4)GlcNAc(b1-4)GlcNAc
# In short: as §1
# [39] = biological target: Neu5Ac(a2-6)Gal(b1-4)GlcNAc(b1-2)[Neu5Ac(a2-6)Gal(b1-4)GlcNAc(b1-6)]Man(a1-6)[Neu5Ac(a2-6)Gal(b1-4)GlcNAc(b1-2)Man(a1-3)][GlcNAc(b1-4)]Man(b1-4)GlcNAc(b1-4)GlcNAc
# In short: as §1
# [40] = biological target: Neu5Ac(a2-6)Gal(b1-4)GlcNAc(b1-3)Gal(b1-3)GlcNAc
# In short: as §1
# [41] = biological target: Neu5Ac(a2-6)Gal(b1-4)GlcNAc(b1-3)Gal(b1-4)GlcNAc
# In short: as §1
# [42] = biological target: Neu5Ac(a2-6)Gal(b1-4)GlcNAc(b1-3)Gal(b1-4)GlcNAc(b1-2)Man(a1-3)[Neu5Ac(a2-6)Gal(b1-4)GlcNAc(b1-3)Gal(b1-4)GlcNAc(b1-2)Man(a1-6)]GalNAc
# In short: as §1
# [43] = biological target: Neu5Ac(a2-6)Gal(b1-4)GlcNAc(b1-3)Gal(b1-4)GlcNAc(b1-3)Gal(b1-4)GlcNAc
# In short: as §1
binder,measurement,setting,value
PkBDPgamma (Plasmodium knowlesi) (protein) SAINQIFLQNNVMDKCNDKRKRGERDWDCPTEKDVCIPDRRYQLCMMEITNLVDTDTHFHSDIIFRKSYSRRRLIYDVGGRGDLLLKKYNNVYSEDLCKDIKWSLQDFGDIIMGTDMEGIGYSLVVQNNLRSIFGTGTSAELDRKKWWNDHKKDIWKAMILSVKEKNRYSAWNCKEDVQIKVEPQIYRWIREWGRDYMSEFREQRRKLNEKCEDKLYYSTMLICTLPPCNNACKSYDEWITGKKKQWDVLSTKFSSVKKAQKIETENIARAYDILKQELNGFNEVTFENEINKRDKLYNYFCVCIVQEARKNTQENVKNVGSGVESKAPSSNPINEAVKSSSGEGKVQEDSAHRSVNEGEGKSSTNEADPGSQPGAAASGGGSGGGTGGGVDLAPQMLRELQETNAALQDVRELLRQQVKEITFLKNTVMECDACGGPLDRNLPPLAPLGPTGGWSHPQFEK,glycan array binding signal (z-score),[1],0.103
same,glycan array binding signal (z-score),[2],-0.303
same,glycan array binding signal (z-score),[3],-0.158
same,glycan array binding signal (z-score),[4],-0.347
same,glycan array binding signal (z-score),[5],-0.024
same,glycan array binding signal (z-score),[6],-0.359
same,glycan array binding signal (z-score),[7],-0.529
same,glycan array binding signal (z-score),[8],-0.145
same,glycan array binding signal (z-score),[9],0.574
same,glycan array binding signal (z-score),[10],0.422
same,glycan array binding signal (z-score),[11],0.755
same,glycan array binding signal (z-score),[12],0.362
same,glycan array binding signal (z-score),[13],0.233
same,glycan array binding signal (z-score),[14],0.082
same,glycan array binding signal (z-score),[15],-0.294
same,glycan array binding signal (z-score),[16],-0.468
same,glycan array binding signal (z-score),Neu5Ac(a2-3)GalNAc,-0.119
same,glycan array binding signal (z-score),[17],-0.217
same,glycan array binding signal (z-score),[18],-0.386
same,glycan array binding signal (z-score),[19],-0.169
same,glycan array binding signal (z-score),[20],-0.323
same,glycan array binding signal (z-score),[21],-0.392
same,glycan array binding signal (z-score),Neu5Ac(a2-6)Gal,-0.307
same,glycan array binding signal (z-score),[22],-0.324
same,glycan array binding signal (z-score),Neu5Ac(a2-6)Gal(b1-4)Glc,-0.286
same,glycan array binding signal (z-score),[23],-0.428
same,glycan array binding signal (z-score),[24],0.007
same,glycan array binding signal (z-score),[25],-0.257
same,glycan array binding signal (z-score),[26],-0.11
same,glycan array binding signal (z-score),[27],-1.14
same,glycan array binding signal (z-score),[28],-0.042
same,glycan array binding signal (z-score),[29],-0.558
same,glycan array binding signal (z-score),[30],0.43
same,glycan array binding signal (z-score),[31],-0.003
same,glycan array binding signal (z-score),[32],-0.048
same,glycan array binding signal (z-score),[33],0.247
same,glycan array binding signal (z-score),[34],0.037
same,glycan array binding signal (z-score),[35],-0.232
same,glycan array binding signal (z-score),[36],0.328
same,glycan array binding signal (z-score),[37],-0.13
same,glycan array binding signal (z-score),[38],-0.269
same,glycan array binding signal (z-score),[39],-0.382
same,glycan array binding signal (z-score),[40],-0.469
same,glycan array binding signal (z-score),[41],-0.094
same,glycan array binding signal (z-score),[42],0.091
same,glycan array binding signal (z-score),[43],0.015
